We go through 111 molecules from PubChem BioAssay AID1240 (Sanford-Burnham Center for Chemical Genomics, 2008).

In all, about 50,000 compounds went through this assay and about 800 (1.6%) showed an effect of 50% or more. Some of the results follow.

The target in this experiment is Bcl-2-like protein 10 (Homo sapiens) (UniProt Q9HD36). As to the kind of experiment: Phenotype converters, Bcl-B/TR3 peptide binding displacement, primary biochemical FP (AID 1240).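 Note: 0% = Bcl-B with tracer peptide and DMSO and 100% = tracer peptide lacking Bcl-B.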 The note with it: GST-Bcl-B / FITC-TR3 peptide fluorescence polarization; stronger effect = higher value; compound at 3.75 mg/L.
Chain of UniProt Q9HD36 (Q9HD36 whole entry, looked up): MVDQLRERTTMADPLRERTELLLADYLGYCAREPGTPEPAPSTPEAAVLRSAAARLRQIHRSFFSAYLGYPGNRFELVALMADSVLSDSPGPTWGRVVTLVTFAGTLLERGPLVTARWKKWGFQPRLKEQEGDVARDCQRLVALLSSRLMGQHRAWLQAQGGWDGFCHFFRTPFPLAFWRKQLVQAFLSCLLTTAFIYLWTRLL
Take `CN(C)c1nc(N(C)C)nc(N2CC(=O)N(c3ccccc3)C2=N)n1`: the displacement is 5.1%.
The result for `O=C1C2C(c3ccccc3)C=CC(c3ccccc3)C2C(=O)N1c1ccc2c(c1)oc1ccccc12` (stereo unspecified) reads -13.5%; that for `COc1ccccc1C1C(C(C)=O)=C(O)C(=O)N1CC1CCCO1` (stereo unspecified), -4.6%; that for `O=C1c2ccccc2C2(O)OC(c3ccccc3)=C(c3nc4ccccc4s3)C12O` (stereo unspecified), 7.9%.
In the case of `COc1ccc(C(=O)Nc2ccc(N(C)C(C)=O)cc2)cc1`, the displacement was -10.8%.
The result for `CCOC(=O)c1c(NC(=O)c2cc3ccccc3o2)sc2c1CCC(C)C2` (stereo unspecified) reads -4.7%; that for `CC(C)OC(=O)c1ccc(NC(=O)c2cccc(Br)c2)cc1`, 69.2%.
The figure for `Cc1ccc(C(=O)Nc2cccc([N+](=O)[O-])c2C)cc1C` is 6.8%; for `Brc1ccc(OCCCCCn2ccnc2)cc1` it is -7.3%.
The figure for `CCCCOC(=O)c1cccc(NC(=O)/C=C/c2ccc(OC)cc2)c1` is -15.7%.
For the molecule `Cc1ccc(-c2nc3c(c(-c4ccc(C)cc4)n2)CCCC3)cc1`, the displacement is -6.2%.
The figure for `COC(=O)CN1C(=O)/C(=C\c2ccccc2F)SC1=S` is -4.4%; for `N#CC1=C(SCC(=O)Nc2ccc(Br)cc2)NC(=O)CC1c1cccc2ccccc12` (stereo unspecified) it is -4.2%.
The result for `O=C(NC1CCCCC1)O/N=C\c1ccc(Br)cc1` reads -0.6%.
The figure for `COCCNCCOc1ccc(Br)cc1` is 9.9%; for `Cc1cc(C)n(S(=O)(=O)c2ccc(I)cc2C)n1` it is 13.8%.
Take `CCOC(=O)C1=C(c2ccccc2)OC(N)=C(C#N)C1C1CCCCC1` (stereo unspecified): the displacement is -15%.
The figure for `COc1ccccc1/C=C1\SC(=S)N(CC(C)C)C1=O` is 9.8%.
The figure for `Cc1ccc(N2C(=O)/C(=C/c3ccc(Cl)cc3)SC2=S)cc1C` is 10.6%.
The result for `CCOc1cc(OCC)cc(C(=O)Nc2ccc(O)c(-c3nc4cc(C)c(C)cc4o3)c2)c1` reads 11.9%; that for `O=C1C2C3C=CC(CC3)C2C(=O)N1c1ccc(F)cc1` (stereo unspecified), 13.2%.
With `Nc1ncc2c(n1)CC(c1ccccc1)CC2=O` (stereo unspecified), the displacement was determined as 5.4%.
The figure for `O=c1/c(=C/c2cccc(Br)c2)sc2nc3ccccc3n12` is 14.5%; for `Cc1cccc(C2(c3cccc(C)c3)CC2C(=O)NCc2ccco2)c1` (stereo unspecified) it is 1.8%.
For `O=[N+]([O-])c1cccc(CNC23CC4CC(CC(C4)C2)C3)c1`, the displacement was 3.1%.
The figure for `NC(=O)CN1C(=O)/C(=C2\SC(=S)N(CCCC(=O)O)C2=O)c2ccccc21` is 11.2%.
For the molecule `O=C(O)c1ccccc1SCCCN1C(=O)c2ccccc2C1=O`, the displacement was -6.6%.
The figure for `O=C(O)c1ccc(S(=O)(=O)c2ccc3c(c2)C(=O)N(c2ccc(O)cc2)C3=O)cc1` is 6.1%; for `CCc1ccc(N2C(=O)NC(=O)/C(=C\c3ccc(O)c(OC)c3)C2=O)cc1` it is 4.5%; for `COc1ccccc1NC(=O)CC1S/C(=N\N=C(/C)c2ccc(F)cc2)NC1=O` (stereo unspecified) it is -3.3%.
The result for `CCOC(=O)C1=C(C)NC(=O)NC1c1sccc1C` (stereo unspecified) reads -18.7%.
The figure for `O=C(COc1ccc(Cl)cc1)Nc1cccc(-c2nc3cc(Cl)ccc3o2)c1` is 25.2%; for `O=C(NNS(=O)(=O)c1ccc(Br)cc1)c1cccs1` it is -5.3%.
For the molecule `COc1cc(/C=C2\SC(N)=NC2=O)c([N+](=O)[O-])cc1OC`, the displacement was determined as 22.6%.
The figure for `O=C(/C=C/c1ccc2c(c1)OCO2)c1cccc(Br)c1` is 1.3%; for `CN1C(=O)/C(=C2\SC(=S)N(NC(=O)c3cccnc3)C2=O)c2ccccc21` it is 0.4%; for `CC(=O)Nc1ccc(S(=O)(=O)N/N=C/c2ccc[nH]2)cc1` it is -1.1%.
The figure for `COc1cc(Br)c(/C=C2\C(=O)NC(=O)N(c3ccc(C)cc3)C2=O)cc1OC` is 2.3%; for `C(#Cc1ccccc1)CN1CCN(CC#Cc2ccccc2)CC1` it is 4.2%; for `CCOc1ccc(/C=C2\C(=O)NC(=O)N(c3ccccc3F)C2=O)cc1Cl` it is 5.9%.
The result for `O=C(c1ccc(CN2CCOCC2)cc1)N1CCN(C(=O)c2ccc(CN3CCOCC3)cc2)CC1` reads 2.1%; that for `O=C(Nc1ccc(Cc2ccncc2)cc1)c1ccccc1Br`, -1.9%.
As to `CC(C)CCNC(=O)c1cc(Cl)ccc1Cl`, the displacement is 3.4%.
The figure for `COc1ccc(S(=O)(=O)N2CCN(Cc3cccc(OC)c3)CC2)cc1` is 7.6%; for `CCSc1nc2ccccc2n1Cc1ccc(OC)c([N+](=O)[O-])c1` it is 10.5%.
The figure for `COc1ccc(C(=O)NC(=S)Nc2cc([N+](=O)[O-])cc(Cl)c2O)cc1` is 11%.
The result for `CCc1cc(C)cc(OCCOc2ccccc2/C=C2/SC(=S)N(C)C2=O)c1` reads 2.3%; that for `CCOc1ccc(NC(=O)c2ccc(Cl)cc2Cl)cc1`, -5.3%; that for `O=C(/C=C/c1cccs1)N1CCN(Cc2ccccc2)CC1`, -14.1%.
`O=C(Nc1ccc(Cl)cc1)c1ccccc1C(=O)c1ccc(Cl)cc1`: the displacement came out at 3.7%.
The figure for `OC(c1ccccc1)c1nc2ccccc2s1` (stereo unspecified) is 7.8%; for `COC(=O)C1=CNC=C(C(=O)OC)C1c1ccc(F)c(F)c1` it is 1.8%; for `COc1ccc(C(=O)Nc2nc(C34CC5CC(CC(C5)C3)C4)c(C)s2)cc1` it is -5.7%.
The result for `COc1ccc(C2C(C(C)=O)=C(C)N=c3s/c(=C\c4ccccc4OC)c(=O)n32)c(OC)c1` (stereo unspecified) reads -3.1%; that for `Nc1c(C(=O)NCc2cccnc2)sc(=S)n1-c1ccccc1`, 13.1%.
The result for `O=C(c1ccccc1)c1ccc(N2CCCCC2)cc1` reads 8.8%; that for `O=C(CCC1CCCC1)NCc1cccnc1`, -0.3%.
For `COc1ccc(-c2nc(=S)c3c(n2Cc2ccccc2)CCCC3)cc1`, the displacement was determined as 10.1%.
Turning to `Cc1cc(/C=N/NC(=O)CC#N)c(C)n1-c1ccc(Cl)cc1Cl`, the displacement was -14.5%.
The result for `CC(=O)C1=C(Nc2ccccc2)CC(C)(O)C(C(C)=O)C1c1ccccc1F` (stereo unspecified) reads -9%.
In the case of `COc1ccc(/C=C2\SC(=O)N(CC(=O)NC(C)(C)C)C2=O)cc1OC`, the displacement was found to be 15%.
The figure for `c1ccc(OCCN2CCOCC2)cc1` is -9.8%; for `O=C(O)c1ccc(N2C(=O)CC(Cc3ccccc3)C2=O)cc1` (stereo unspecified) it is 12.2%; for `O=C(Nc1ccccn1)c1cc(Br)ccc1Cl` it is -2.1%.
The result for `CCSc1nnc(NC(=O)c2ccc(Cl)cc2Cl)s1` reads 11.8%; that for `CCC(=O)Nc1ccc(NC(=O)c2ccco2)c(OC)c1`, -3.3%; that for `C=CCC(C(=O)C(C)C)C(=O)C(C)(C)OC` (stereo unspecified), 8%.
`COCCCNC(=O)/C(=C/c1cccc([N+](=O)[O-])c1)NC(=O)c1ccc(OC)cc1`: the displacement amounted to 11.7%.
The figure for `COc1cccc(N2C(=O)CC(N3CCCCC3)C2=O)c1` (stereo unspecified) is -8.8%.
The result for `Cc1nn(CC(=O)Nc2sc(C)c(C)c2C(N)=O)c(C)c1[N+](=O)[O-]` reads 14.5%; that for `Cc1cc(C)c(NC(=O)c2ccc3c(c2)C(=O)N(c2ccc(Sc4ccc([N+](=O)[O-])cc4)cc2)C3=O)c(C)c1`, 11.8%.
The result for `O=C1CC(c2ccc(OC(F)(F)F)cc2)c2ccc3ccccc3c2N1` (stereo unspecified) reads -14.7%; that for `CC(=O)Nc1ccc(OC(=O)c2c(F)cccc2F)cc1`, 17.9%; that for `COc1ccccc1C/C(N)=N/OC(=O)COc1ccc(C)cc1`, 2.8%.
On to `Cc1nn(-c2ccccc2)c(N2CCCCC2)c1C=O`, for which the displacement was -2.3%.
The figure for `Cc1cccc(N2C(=O)c3cccc4c(N5CCCCC5)ccc(c34)C2=O)c1` is 15.5%; for `O=C(Nc1ccc(Cl)cc1Cl)C1C(c2ccccc2)C1(Cl)Cl` (stereo unspecified) it is -1.2%; for `Cc1cc(=O)oc2c1ccc1oc(C(=O)c3ccc(Cl)cc3)c(C)c12` it is 4.1%.
The result for `CCOc1ccc(C=C2C(=O)c3ccccc3C2=O)cc1Cl` reads -12.8%.
The result for `Cc1ccc(S(=O)(=O)N(Cc2ccccc2)c2ccccc2C(=O)NCc2ccc(Cl)cc2)cc1` reads 11.8%.
With `O=C(Nc1ccc(F)cc1F)N1CCCc2ccccc21`, the displacement was -8.5%.
The result for `Nc1nnc(Cc2ccc(Br)cc2)s1` reads 2.8%; that for `CCN(C(=O)c1cc(OC)c(OC)c(OC)c1)c1ccccc1C`, -11.8%.
The figure for `CCOC(=O)c1ccccc1NC(=O)CN(c1ccc(C)cc1)S(C)(=O)=O` is -0.8%.
On to `CCOC(=O)C1=C(C)NC(C)=C(C(=O)OC)C1c1cc(Cl)cc(Cl)c1OC` (stereo unspecified), for which the displacement came out at 7.1%.
In the case of `CCc1nnc(NC(=O)c2cnccn2)s1`, the displacement is -15.7%.
The result for `CCOc1ccc(-c2c(C#N)c(N)nc3sc(C#N)c(N)c23)cc1` reads -1.4%.
Take `CC(C)C(=O)O/N=C(\N)c1ccncc1`: the displacement is -18.5%.
Take `O=C(c1ccc(-c2ccccc2)cc1)N1CCN(C2CCN(Cc3ccccc3)CC2)CC1`: the displacement is -11.6%.
The figure for `CC(=O)c1cccc(NC(=O)CC2S/C(=N\N=C\c3ccc(C)o3)NC2=O)c1` (stereo unspecified) is -2.4%; for `O=C1NC(=Nc2ccc(Cl)cc2)SC1Cc1cccc([N+](=O)[O-])c1` (stereo unspecified) it is -4.7%; for `Cc1ccc(OC(=O)C23CC4CC(CC(C4)C2)C3)c(C)n1` it is 15.4%.
The result for `COc1cc(NS(=O)(=O)c2c(C)cc(C)cc2C)c(OC)cc1Cl` reads 2.2%.
For `CN(c1ccccc1)c1ccc(/C=C2\C(=O)ON=C2c2ccccc2)cc1`, the displacement was -15.6%.
As for `CC(C)=C1C2CCC1C(C(=O)NCCc1ccccc1)C2C(=O)O` (stereo unspecified), the displacement is -0.4%.
The figure for `O=[N+]([O-])c1ccc(C2Nc3ccc(Br)cc3C3C=CCC32)cc1` (stereo unspecified) is 3.1%.
The figure for `O=C1C(Cl)=C(c2ccc(Cl)cc2)C(=O)N1c1ccc([N+](=O)[O-])cc1` is 5.4%; for `COc1ccc(N(C(C)C(=O)NN=C2CCN(C)CC2)S(C)(=O)=O)cc1` (stereo unspecified) it is 3.9%.
Consider `Cc1nc2ccccn2c1C(=O)NCc1ccc(Cl)cc1`, for which the displacement is -3.9%.
The figure for `CCOc1ccc(-c2nc(-c3ccc(F)cc3)no2)cc1` is -3.2%; for `CC(C)(C)c1ccc(C(=O)N/N=C/C2CC=CCC2)cc1` (stereo unspecified) it is -4%.
The result for `CN(C)c1ccc(N=C2Sc3ccc4ccccc4c3C2=O)cc1` reads -5.7%; that for `COc1ccc(Cl)cc1C(=O)Nc1ccccc1I`, 11.4%.
The figure for `O=C(c1ccco1)N1CCN(C(c2ccccc2)c2ccccc2)CC1` is 14.9%.
Regarding `Cc1cc(C)cc(OCC(=O)NNC(=O)c2c(C)cc(C)cc2C)c1`, the displacement was 6%.
The result for `CC(=O)C1=C(O)C(=O)N(C)C1c1ccccc1[N+](=O)[O-]` (stereo unspecified) reads 2.8%.
The result for `CC(C)c1ccc(-n2c(-c3ccccc3)nc3c(cnn3-c3ccccc3)c2=O)cc1` reads 4.6%; that for `CCc1ccccc1NC(=O)c1cc2n(n1)C(C(F)(F)F)CC(c1ccccc1)N2` (stereo unspecified), -0.6%.
The figure for `CCN1C(=O)NC(c2ccccc2[N+](=O)[O-])C(C(=O)OCCOC)=C1C` (stereo unspecified) is 11.9%.
Regarding `CCCS(=O)(=O)C(=C(Nc1ccc(CC)cc1)Nc1ccc(CC)cc1)S(=O)(=O)CCC`, the displacement turned out to be 16.1%.
The figure for `CCOc1cc(/C=C2/SC(=S)N(C)C2=O)ccc1OCCOc1ccc(C(C)(C)C)cc1` is 0.7%.
